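1) Cells in 96-well plates. 2) Compound, 48 h, 5 concentrations. 3) Linear interpolation between surrounding doses. 4) Unreached endpoint = highest concentration. Here, GI50 denotes the concentration required for 50% inhibition of growth.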 Not every entry of the source has a single result; some have several. This list holds those alone. An entry can have further records. A record mostly stands for its own series of concentrations, not given here; a value can be the end of its range.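 TGI denotes the concentration required for complete inhibition of growth.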
Key:
Assay in all cases: growth of human tumour cells (NCI), 48 h
SF-268 CNS = test system: SF-268 CNS
T-47D breast = test system: T-47D breast
RPMI-8226 leukemia = test system: RPMI-8226 leukemia
CCRF-CEM leukemia = test system: CCRF-CEM leukemia
HT29 colon = test system: HT29 colon
KM20L2 colon = test system: KM20L2 colon
HL-60(TB) leukemia = test system: HL-60(TB) leukemia
K-562 leukemia = test system: K-562 leukemia

## Nc1nc(N)c2cc(CNc3ccc(C(=O)NC(CC(=O)O)C(=O)O)c(Cl)c3)ccc2n1 (stereo not drawn)
SF-268 CNS
  TGI: 12.6 µM and > 500 µM

## CCCCCCCCCCCCOC1C(C(CC(=O)NCCN2CCCC2)NS(=O)(=O)c2cc(Cl)cc(Cl)c2)OC2OC(C)(C)OC21 (stereo not drawn)
T-47D breast
  GI50: 2.08 µM and 45.8 nM

## CCOc1ccccc1NC(=O)C(C#N)C1=C(Cl)C(=O)c2ccccc2C1=O (stereo not drawn)
RPMI-8226 leukemia
  TGI: 3.87 µM and > 100 µM
CCRF-CEM leukemia
  TGI: 3.66 µM and > 100 µM
HT29 colon
  TGI: 4.19 µM and 52.4 µM
KM20L2 colon
  TGI: 3.43 µM and 44.5 µM
HL-60(TB) leukemia
  TGI: 2.16 µM and > 100 µM
K-562 leukemia
  TGI: 3.92 µM and > 100 µM

From PubChem BioAssay (NCI)
